Results are given in words; binding and its absence hold for the method and conditions named. Binding seen in cells or lysates may run through a third protein. Some results given as binding are weak or reduced against the parent protein; the word gives no strength.
Tests used:
[1] = molecular target: T1, Transcriptional repressor GATA binding 1 (TRPS1) (human (endogenous in MCF7 and T47D)) (UniProt Q9UHF7); experiment: co-IP; screen: proteins co-immunoprecipitated with TRPS1, list in Dataset S1, used for GO and KEGG enrichment analysis; how the proteins were identified, the cells and the bait's form are not told
T1 sequence: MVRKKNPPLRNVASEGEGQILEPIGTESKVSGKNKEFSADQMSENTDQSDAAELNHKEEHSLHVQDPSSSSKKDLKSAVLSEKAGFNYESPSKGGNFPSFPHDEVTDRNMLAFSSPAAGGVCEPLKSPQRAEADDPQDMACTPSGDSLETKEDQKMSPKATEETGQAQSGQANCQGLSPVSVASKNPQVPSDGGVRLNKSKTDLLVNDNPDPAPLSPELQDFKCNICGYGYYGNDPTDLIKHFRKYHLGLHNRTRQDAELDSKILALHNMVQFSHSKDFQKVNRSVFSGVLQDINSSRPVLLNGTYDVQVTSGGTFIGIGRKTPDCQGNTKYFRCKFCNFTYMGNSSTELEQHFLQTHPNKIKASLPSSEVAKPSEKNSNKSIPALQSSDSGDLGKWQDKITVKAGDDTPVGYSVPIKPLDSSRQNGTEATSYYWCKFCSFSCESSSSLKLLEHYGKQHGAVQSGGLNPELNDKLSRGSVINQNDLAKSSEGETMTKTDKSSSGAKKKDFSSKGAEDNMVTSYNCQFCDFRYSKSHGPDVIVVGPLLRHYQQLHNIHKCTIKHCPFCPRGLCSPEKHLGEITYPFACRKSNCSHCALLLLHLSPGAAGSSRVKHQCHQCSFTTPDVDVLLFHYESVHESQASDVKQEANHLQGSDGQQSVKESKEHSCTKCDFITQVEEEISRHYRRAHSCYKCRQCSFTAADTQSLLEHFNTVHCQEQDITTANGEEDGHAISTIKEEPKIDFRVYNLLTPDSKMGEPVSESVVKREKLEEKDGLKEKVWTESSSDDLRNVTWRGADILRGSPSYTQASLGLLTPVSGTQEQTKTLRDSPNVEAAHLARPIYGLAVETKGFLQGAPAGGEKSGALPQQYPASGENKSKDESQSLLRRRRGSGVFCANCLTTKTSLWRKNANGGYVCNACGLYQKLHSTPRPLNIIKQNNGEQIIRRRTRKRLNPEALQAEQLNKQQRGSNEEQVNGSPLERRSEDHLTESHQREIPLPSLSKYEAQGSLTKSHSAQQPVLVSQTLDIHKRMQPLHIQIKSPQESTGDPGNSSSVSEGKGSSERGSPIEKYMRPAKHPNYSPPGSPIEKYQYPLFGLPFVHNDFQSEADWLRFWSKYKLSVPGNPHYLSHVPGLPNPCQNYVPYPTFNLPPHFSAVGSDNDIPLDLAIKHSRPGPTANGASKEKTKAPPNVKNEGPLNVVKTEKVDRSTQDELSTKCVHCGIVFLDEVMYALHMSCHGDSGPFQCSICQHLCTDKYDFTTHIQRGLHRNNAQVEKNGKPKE

By UniProt entry, the sequences of proteins in these tests, tags left out.
UniProt P12956: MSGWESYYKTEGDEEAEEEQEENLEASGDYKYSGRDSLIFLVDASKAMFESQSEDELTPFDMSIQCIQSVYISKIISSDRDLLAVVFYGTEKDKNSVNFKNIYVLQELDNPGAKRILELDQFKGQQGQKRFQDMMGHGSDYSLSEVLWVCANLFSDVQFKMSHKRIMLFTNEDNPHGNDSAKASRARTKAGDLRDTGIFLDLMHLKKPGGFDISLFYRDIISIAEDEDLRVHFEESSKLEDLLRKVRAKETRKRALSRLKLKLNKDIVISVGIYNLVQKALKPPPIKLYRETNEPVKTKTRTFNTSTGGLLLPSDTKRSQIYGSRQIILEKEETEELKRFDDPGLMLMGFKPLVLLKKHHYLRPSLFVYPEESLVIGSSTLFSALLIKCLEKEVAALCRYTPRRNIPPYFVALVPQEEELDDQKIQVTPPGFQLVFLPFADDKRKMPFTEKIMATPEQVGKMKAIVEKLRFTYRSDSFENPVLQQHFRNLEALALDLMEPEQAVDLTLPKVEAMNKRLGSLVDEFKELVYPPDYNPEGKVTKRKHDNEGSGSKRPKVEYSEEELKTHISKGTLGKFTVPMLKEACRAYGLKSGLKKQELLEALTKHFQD
UniProt P09874: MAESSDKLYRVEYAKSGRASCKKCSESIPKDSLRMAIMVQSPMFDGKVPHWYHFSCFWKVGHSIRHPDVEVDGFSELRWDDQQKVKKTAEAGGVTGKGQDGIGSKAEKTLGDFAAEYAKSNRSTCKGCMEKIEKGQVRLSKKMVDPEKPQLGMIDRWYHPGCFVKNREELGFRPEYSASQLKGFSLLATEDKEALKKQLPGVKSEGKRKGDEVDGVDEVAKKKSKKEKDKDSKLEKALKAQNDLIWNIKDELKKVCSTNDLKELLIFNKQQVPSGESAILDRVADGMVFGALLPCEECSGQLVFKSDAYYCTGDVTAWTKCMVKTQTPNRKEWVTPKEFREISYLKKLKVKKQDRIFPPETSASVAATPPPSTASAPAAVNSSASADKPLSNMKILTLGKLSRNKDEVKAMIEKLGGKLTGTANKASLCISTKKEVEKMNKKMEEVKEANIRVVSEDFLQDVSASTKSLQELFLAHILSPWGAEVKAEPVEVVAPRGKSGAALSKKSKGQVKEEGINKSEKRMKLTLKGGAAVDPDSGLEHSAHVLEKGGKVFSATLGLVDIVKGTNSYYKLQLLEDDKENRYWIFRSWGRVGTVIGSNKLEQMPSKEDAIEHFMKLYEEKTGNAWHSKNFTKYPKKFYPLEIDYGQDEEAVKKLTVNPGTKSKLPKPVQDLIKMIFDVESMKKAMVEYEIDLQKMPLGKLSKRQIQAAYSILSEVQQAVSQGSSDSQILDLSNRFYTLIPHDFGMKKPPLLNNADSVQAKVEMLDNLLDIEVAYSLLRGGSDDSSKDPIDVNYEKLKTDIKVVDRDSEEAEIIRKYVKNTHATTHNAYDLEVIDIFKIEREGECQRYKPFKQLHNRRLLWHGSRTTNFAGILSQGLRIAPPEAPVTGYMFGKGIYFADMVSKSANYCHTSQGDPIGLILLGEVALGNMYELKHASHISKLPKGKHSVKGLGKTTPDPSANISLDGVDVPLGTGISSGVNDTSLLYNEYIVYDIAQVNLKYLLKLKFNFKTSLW
UniProt P78527: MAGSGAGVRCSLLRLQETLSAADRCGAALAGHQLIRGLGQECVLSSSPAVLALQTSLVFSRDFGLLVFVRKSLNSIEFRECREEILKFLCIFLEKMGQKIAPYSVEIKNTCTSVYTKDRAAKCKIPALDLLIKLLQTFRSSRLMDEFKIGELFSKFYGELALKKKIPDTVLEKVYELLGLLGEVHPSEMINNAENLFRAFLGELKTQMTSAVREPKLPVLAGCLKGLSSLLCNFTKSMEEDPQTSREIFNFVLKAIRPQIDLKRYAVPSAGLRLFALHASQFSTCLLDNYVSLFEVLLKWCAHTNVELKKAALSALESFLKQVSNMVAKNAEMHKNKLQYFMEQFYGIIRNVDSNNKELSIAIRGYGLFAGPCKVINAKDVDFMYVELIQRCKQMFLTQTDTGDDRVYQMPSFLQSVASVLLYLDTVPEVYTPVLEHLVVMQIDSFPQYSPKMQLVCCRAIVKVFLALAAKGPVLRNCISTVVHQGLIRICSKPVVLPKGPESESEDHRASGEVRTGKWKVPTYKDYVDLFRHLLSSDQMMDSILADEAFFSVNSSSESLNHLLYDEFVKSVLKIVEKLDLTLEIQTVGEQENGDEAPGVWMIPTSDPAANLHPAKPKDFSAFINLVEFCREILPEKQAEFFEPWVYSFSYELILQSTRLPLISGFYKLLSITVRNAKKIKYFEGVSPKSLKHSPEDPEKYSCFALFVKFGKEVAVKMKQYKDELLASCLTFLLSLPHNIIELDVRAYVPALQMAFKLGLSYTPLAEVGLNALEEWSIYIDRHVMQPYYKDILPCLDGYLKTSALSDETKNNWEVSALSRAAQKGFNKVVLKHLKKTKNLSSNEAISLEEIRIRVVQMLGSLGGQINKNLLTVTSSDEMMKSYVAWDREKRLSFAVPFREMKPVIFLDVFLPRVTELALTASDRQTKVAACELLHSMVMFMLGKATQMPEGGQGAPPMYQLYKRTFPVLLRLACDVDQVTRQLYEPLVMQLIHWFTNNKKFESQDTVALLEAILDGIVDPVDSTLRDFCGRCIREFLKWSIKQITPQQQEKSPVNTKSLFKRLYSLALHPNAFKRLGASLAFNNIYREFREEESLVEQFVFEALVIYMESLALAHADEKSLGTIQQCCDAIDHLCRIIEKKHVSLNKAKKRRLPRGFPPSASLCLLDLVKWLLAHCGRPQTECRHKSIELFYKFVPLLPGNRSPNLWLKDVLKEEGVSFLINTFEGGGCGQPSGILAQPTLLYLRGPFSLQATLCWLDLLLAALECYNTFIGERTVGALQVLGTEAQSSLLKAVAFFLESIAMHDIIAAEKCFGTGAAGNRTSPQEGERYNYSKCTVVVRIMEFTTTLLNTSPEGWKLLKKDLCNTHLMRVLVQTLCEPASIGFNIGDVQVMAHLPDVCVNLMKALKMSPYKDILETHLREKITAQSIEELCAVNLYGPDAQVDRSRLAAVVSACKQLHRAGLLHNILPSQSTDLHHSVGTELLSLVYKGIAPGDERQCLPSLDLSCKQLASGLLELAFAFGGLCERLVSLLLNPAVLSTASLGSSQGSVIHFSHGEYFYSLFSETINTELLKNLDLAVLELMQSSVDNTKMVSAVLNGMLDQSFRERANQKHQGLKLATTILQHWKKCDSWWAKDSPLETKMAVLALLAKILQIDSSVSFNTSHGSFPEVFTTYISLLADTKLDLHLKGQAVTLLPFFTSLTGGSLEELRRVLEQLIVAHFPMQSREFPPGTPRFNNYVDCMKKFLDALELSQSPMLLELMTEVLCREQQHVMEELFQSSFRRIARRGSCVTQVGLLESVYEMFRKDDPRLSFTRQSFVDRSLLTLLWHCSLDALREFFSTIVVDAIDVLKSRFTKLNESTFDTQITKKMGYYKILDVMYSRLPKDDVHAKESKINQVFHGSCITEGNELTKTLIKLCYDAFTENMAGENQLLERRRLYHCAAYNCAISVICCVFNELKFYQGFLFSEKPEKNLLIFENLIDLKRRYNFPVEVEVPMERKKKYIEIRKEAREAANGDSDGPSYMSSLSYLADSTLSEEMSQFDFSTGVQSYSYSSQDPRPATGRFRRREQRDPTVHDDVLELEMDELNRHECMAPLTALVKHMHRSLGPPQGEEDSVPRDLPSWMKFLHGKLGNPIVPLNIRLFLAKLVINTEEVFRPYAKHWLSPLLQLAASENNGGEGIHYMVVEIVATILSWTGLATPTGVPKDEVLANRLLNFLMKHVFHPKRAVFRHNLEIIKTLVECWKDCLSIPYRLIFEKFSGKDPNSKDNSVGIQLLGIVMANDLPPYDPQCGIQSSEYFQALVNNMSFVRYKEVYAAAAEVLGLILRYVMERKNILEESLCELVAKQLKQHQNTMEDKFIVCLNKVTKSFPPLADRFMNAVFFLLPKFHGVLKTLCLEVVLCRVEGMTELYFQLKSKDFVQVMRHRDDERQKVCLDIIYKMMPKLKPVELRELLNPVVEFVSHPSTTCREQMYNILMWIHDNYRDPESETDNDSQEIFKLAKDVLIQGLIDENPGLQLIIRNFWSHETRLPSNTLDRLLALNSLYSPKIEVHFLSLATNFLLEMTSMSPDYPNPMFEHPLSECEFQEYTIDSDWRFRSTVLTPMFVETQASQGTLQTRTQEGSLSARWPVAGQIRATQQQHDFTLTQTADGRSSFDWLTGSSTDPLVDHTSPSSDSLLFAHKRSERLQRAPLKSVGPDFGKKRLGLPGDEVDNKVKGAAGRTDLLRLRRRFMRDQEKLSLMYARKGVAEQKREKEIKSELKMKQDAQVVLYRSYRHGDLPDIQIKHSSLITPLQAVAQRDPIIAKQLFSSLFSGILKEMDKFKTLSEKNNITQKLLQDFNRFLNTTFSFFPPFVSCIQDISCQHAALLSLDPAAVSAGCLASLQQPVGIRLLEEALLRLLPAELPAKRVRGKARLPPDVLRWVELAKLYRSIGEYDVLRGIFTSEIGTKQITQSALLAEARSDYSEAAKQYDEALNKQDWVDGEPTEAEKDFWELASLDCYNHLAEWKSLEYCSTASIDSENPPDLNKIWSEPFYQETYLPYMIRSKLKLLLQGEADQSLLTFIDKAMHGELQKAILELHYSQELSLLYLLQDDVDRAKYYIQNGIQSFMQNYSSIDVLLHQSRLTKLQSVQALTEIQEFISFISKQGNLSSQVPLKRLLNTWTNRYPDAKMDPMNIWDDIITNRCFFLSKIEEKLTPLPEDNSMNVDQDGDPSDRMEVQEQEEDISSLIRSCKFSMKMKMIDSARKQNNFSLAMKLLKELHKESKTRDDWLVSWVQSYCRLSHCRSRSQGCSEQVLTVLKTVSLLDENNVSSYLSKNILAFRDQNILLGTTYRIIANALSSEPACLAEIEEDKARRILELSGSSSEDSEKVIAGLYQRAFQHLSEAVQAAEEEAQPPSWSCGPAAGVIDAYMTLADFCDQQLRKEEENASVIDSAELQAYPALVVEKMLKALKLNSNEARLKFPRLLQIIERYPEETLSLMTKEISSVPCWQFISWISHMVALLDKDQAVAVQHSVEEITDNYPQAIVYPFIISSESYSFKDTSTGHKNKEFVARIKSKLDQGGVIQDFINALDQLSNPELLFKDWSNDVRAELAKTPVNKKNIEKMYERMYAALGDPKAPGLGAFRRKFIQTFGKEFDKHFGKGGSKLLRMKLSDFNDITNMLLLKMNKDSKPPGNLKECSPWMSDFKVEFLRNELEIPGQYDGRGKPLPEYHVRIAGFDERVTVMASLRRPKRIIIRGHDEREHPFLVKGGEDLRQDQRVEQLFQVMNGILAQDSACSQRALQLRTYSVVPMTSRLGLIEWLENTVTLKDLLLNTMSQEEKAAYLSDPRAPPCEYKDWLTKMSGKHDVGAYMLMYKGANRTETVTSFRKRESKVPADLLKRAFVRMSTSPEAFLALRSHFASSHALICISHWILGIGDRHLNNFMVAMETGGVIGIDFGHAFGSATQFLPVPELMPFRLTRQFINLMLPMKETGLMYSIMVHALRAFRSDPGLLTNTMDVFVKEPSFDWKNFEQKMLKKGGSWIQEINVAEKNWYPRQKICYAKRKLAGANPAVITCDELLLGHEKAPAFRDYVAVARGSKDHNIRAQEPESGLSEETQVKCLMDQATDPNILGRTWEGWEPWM
UniProt Q13426: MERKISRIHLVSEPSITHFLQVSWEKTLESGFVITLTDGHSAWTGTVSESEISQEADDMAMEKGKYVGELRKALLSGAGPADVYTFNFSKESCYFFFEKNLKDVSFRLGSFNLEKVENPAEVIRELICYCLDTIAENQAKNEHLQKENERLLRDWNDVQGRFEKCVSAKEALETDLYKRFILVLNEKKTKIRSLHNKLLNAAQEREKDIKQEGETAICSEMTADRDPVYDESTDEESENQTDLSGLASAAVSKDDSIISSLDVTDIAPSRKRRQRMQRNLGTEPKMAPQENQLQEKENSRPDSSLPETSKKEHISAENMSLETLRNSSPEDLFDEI

[2] = molecular target: T1, Transcriptional repressor GATA binding 1 (TRPS1) (human (endogenous in MCF7 and T47D)); experiment: co-IP; endogenous proteins in MCF7 and T47D lysates; Protein G beads conjugated with anti-TRPS1 antibody, control IgG; washes in 50 mM Tris-HCl pH 7.5, 150 mM NaCl, 1% Triton X-100, 1 mM EDTA; cells untreated or challenged with 5 μM ADR for 2 h and chased, or DMSO, or treated with AG14361 for 24 h; lysates with or without Deoxyribonuclease I

Substance	binding [1]	binding [2]
Ku70 (from UniProt P12956 1-609)	binds	binds
Ku80 (from UniProt P13010 1-732)	binds	binds
Poly [ADP-ribose] polymerase 1 (PARP1) (from UniProt P09874 1-1014) (enzyme)	binds	binds
DNA-PKcs (from UniProt P78527 1-4128) (enzyme)		no binding
XRCC4 (from UniProt Q13426 1-336)		no binding

Reference: publication PMC11490888
